Results on 48 molecules are retold here after PubChem BioAssay AID1508642 (National Center for Advancing Translational Sciences (NCATS), 2021).

Among all 43,000 compounds or so, about 200 (0.47%) were called active. Not shown: some 12% with an inconclusive outcome. Calls come from the whole dose curve; as a rule, active = well fitted cell-killing curve with a large enough effect; inconclusive = small, poorly fitted or top-dose-only effect, or effect the other way; inactive = flat fitted curve, though single readings scatter. Some of the results follow.
% is set by controls: 0 for no effect and ±100 for the full control effect.

This experiment in a line: Cell viability qHTS assay in S16 Pmp22-F2sN cells. Note: nearly all actives have a fitted effect of over 65% in size. The note with it: S16 Pmp22-F2sN Schwann cells (luciferase reporters placed in the Pmp22 gene) viability, CellTiter-Glo, 24 h; series mostly up to 57.5 µM; activity change, negative = cytotoxicity: at the top concentration. An outline of the steps: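 S16 Schwann cells carrying the Pmp22-F2sN reporter, seeded in 1536-well format, were exposed to library compounds for 24 h at 37C. Viability was read as CellTiter-Glo luminescence after 15 min at room temperature.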
(Quantitative high-throughput screening tests each substance at several concentrations.)
As for `COc1ccc(OC)c(NC(=O)c2c(NCc3ccc(OC)c(OC)c3)sc3c2CCC(C)C3)c1` (stereo not drawn), the “activity change, negative = cytotoxicity” value is inactive: 0.521%. Take `Nc1c(C(=O)Nc2cccc(F)c2)sc2nc(-c3cccs3)ccc12`: the “activity change, negative = cytotoxicity” value was inactive: 18.4%.

In the case of `CCC(Oc1ccc(F)cc1)C(=O)Nc1nc2c(s1)CCCC2` (stereo not drawn), the “activity change, negative = cytotoxicity” value was inactive: -2.59%. The figure for `CCc1ccc(-c2cc(C)no2)cc1S(=O)(=O)NCc1ccco1` is inactive: -14.9%. With `Cc1cccc(C(=O)N2CCCCC2CCN2CCCCC2)c1` (stereo not drawn) the figure was inactive: 13.2%; with `O=C(NC1CCCCC1)c1ccc(Cn2c(SCc3ccccc3)nc3cccnc32)cc1`, inactive: -2.98%.

Consider `COc1ccc(C(=O)N2c3nc(-c4ccco4)nn3C3(CCCCC3)[C@@H]3CCCC[C@@H]32)cc1OC`, for which the “activity change, negative = cytotoxicity” value was inactive: 3.34%. `Cc1cccc(N2CCN(C(=O)C(C)n3nc(C)n4c(cc5occc54)c3=O)CC2)c1C` (stereo not drawn): the “activity change, negative = cytotoxicity” value was inactive: 19.9%. For the molecule `Cc1cc(C)c(NC(=O)CN2C(=O)C3(SCC(=O)N3c3ccc(F)cc3)c3ccccc32)c(C)c1` (stereo not drawn), the “activity change, negative = cytotoxicity” value is inactive: -26.4%. For the molecule `Cc1cc(C)c(NC(=O)c2c(C)oc3c2C2=NCCN2C=N3)c(C)c1`, the “activity change, negative = cytotoxicity” value is inactive: -16.5%.

Take `CCCCCCc1cc2cc(-c3nnc(-c4cccc(Cl)c4)o3)c(=O)oc2cc1O`: the “activity change, negative = cytotoxicity” value was inactive: -3.18%. With `Cc1ccc(NC(=O)c2oc3ccc(S(=O)(=O)N4CCCCC4)cc3c2C)c(C)c1`, the “activity change, negative = cytotoxicity” value was inactive: -29.1%. The figure for `Cc1ccc(S(=O)(=O)N2CCCc3cc(NS(=O)(=O)c4ccc(F)cc4)ccc32)cc1` is inactive: -16.5%; for `CN(C)c1ccc(CNC(=O)C2CCN(S(=O)(=O)c3ccc4c(c3)oc(=O)n4C)CC2)cc1` it is inactive: 5.95%. The figure for `COc1cccc(NC(=O)Cn2c(=O)n(Cc3ccc(C(=O)NCc4ccc5c(c4)OCO5)cc3)c(=O)c3ccccc32)c1` is inactive: -19.5%.

Consider `CCc1ccc(CNC(=O)Cn2nc(-c3ccc(Cl)cc3)ccc2=O)cc1`, for which the “activity change, negative = cytotoxicity” value was inactive: 3.99%. As for `COc1ccc(C2c3c(n(C)c4ccccc34)C(=O)N2CC(=O)Nc2ccc(C)cc2Cl)cc1` (stereo not drawn), the “activity change, negative = cytotoxicity” value is inactive: -20.3%. Consider `CCN(CC)S(=O)(=O)c1ccc(-c2csc(=Nc3cccc(C(F)(F)F)c3)n2Cc2ccc3c(c2)OCO3)cc1`, for which the “activity change, negative = cytotoxicity” value is inactive: 15.2%. With `Cc1ccc(N(CC(=O)Nc2ccc(F)cc2F)S(=O)(=O)c2cccs2)cc1` the figure was inactive: -22.7%; with `CCC(=O)C1=C(c2ccccc2)N(C(=O)CC)n2c(nnc2-c2ccccc2)S1`, inactive: 2.33%.

Take `Cc1ccc(S(=O)(=O)NCCc2nnc3ccc(SCc4ccccc4F)nn23)cc1`: the “activity change, negative = cytotoxicity” value is inactive: -18.2%. The figure for `COc1ccc(CCNC(=O)c2ccc3c(c2)N(Cc2ccccc2Cl)C(=O)c2ccccc2S3)cc1OC` is inactive: 1.1%. With `O=C(COc1ccccc1F)Nc1nnc(SCc2cc(=O)n3ccccc3n2)s1` the figure was inactive: -2.45%; with `Cc1ccccc1Cn1nnc2sc3c(c2c1=O)CCCC3`, inactive: 4.29%.

For the molecule `CCOC(=O)c1c(NC(=O)Nc2ccc(F)cc2)sc(C(=O)N(C)C)c1C`, the “activity change, negative = cytotoxicity” value was inactive: 3.81%.

Take `Cc1ccc(CN2c3ccccc3-c3nc(SCC(=O)NCc4ccccc4)ncc3S2(=O)=O)cc1`: the “activity change, negative = cytotoxicity” value was inactive: -6.71%. With `O=C(CS(=O)(=O)c1cccc2nsnc12)NCc1ccccc1Cl` the figure was inactive: 9.45%; with `COc1ccc(C(=O)NCCc2csc(-c3ccc(Cl)cc3)n2)cc1`, inactive: 14.2%. The figure for `Cn1cc(CCCC(=O)NCc2cccc(Br)c2)c2ccccc21` is inactive: -28.5%. Consider `COc1ccc(-c2cccc(NS(=O)(=O)c3cc(C(F)(F)F)ccc3Cl)c2)nn1`, for which the “activity change, negative = cytotoxicity” value is inactive: 9.97%. The figure for `CCc1nc2ccc(C(=O)NCc3ccccc3C)cc2nc1CC` is inactive: -0.446%. As for `O=c1c(NCc2cccs2)nccn1-c1ccccc1`, the “activity change, negative = cytotoxicity” value was inactive: -22.9%. Consider `CCN(CC)c1ccc(C(=O)N2CCc3c([nH]c4ccccc34)C2c2ccc(F)cc2)cc1` (stereo not drawn), for which the “activity change, negative = cytotoxicity” value is inactive: -9.89%. With `Cc1ccc(NC(=O)c2cccc3c(=O)c4c([nH]c23)CCCC4)c(C)c1` the figure was inactive: -10.4%; with `CCOc1ccc(NC(=O)Nc2nnc(N3CCCCC3C)s2)cc1` (stereo not drawn), inactive: -4.81%; with `CCOC(=O)c1sc2ccccc2c1S(=O)(=O)Nc1ccc(OC)c(Cl)c1`, inactive: -8.54%. As for `Cc1ccc(NC(=O)Nc2nnc(SCC(=O)N(C(C)C)C(C)C)s2)cc1`, the “activity change, negative = cytotoxicity” value is inactive: 4.49%.

Take `COc1cccc(CNC(=O)c2c(C)nn(-c3ccc(F)cc3)c2-n2cccc2)c1`: the “activity change, negative = cytotoxicity” value is inactive: 1.69%.

As for `COc1ccc(C(=O)NCCSc2c[nH]c3ccccc23)cc1OC`, the “activity change, negative = cytotoxicity” value is inactive: -14.1%.

With `Clc1ccc(CSc2ccc(-c3cccs3)nn2)cc1`, the “activity change, negative = cytotoxicity” value is inactive: -3.29%. Turning to `CCC(CC)C(=O)N1c2ccccc2C(C)(c2ccccc2)CC1(C)C` (stereo not drawn), the “activity change, negative = cytotoxicity” value is inactive: -25.2%. Turning to `CSc1ncc(C(=O)Nc2cc(C)cc(C)c2)c(-c2ccccc2)n1`, the “activity change, negative = cytotoxicity” value is inactive: -4.33%. The figure for `COc1ccc(-n2c(=O)c3c4c(sc3n(Cc3ccc(F)cc3)c2=O)CN(C(C)=O)CC4)c(OC)c1` is inactive: 31.1%.

In the case of `CCc1ccc2oc(-c3ccc(C)c(NC(=O)c4cc([N+](=O)[O-])ccc4N4CCOCC4)c3)nc2c1`, the “activity change, negative = cytotoxicity” value was inactive: -13.2%.

Take `CCCCc1ccc(-n2nc3ccc(NC(=O)c4cc5ccccc5o4)cc3n2)cc1`: the “activity change, negative = cytotoxicity” value is inactive: -25.4%. On to `CCOCCCn1c(SCC(=O)Nc2ccccc2CC)nc2ccccc2c1=O`, for which the “activity change, negative = cytotoxicity” value was inactive: -11.5%. With `CCOC(=O)Cn1c(=O)oc2cc(S(=O)(=O)N3CCN(c4cccc(Cl)c4)CC3)ccc21`, the “activity change, negative = cytotoxicity” value was inactive: 1.18%. With `O=C(O)c1sc(Nc2ccccc2)nc1-c1ccccc1`, the “activity change, negative = cytotoxicity” value is inactive: -4.28%.
